Test results as given in PubChem BioAssay (NCI).
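Interpolation was linear, between the two tested concentrations surrounding the appropriate level; five concentrations were tested over 48 hours in 96-well plates. Abbreviation: GI50, concentration required for 50% inhibition of growth.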 Not every entry of the source has a single result; some have several. The other results are left out here. An entry can have further records. For part of these data: The tests behind the records often covered other concentration ranges, which the source does not state; a value can be the end of its range. For part of these data: The records of an entry repeat one measurement across runs, samples, wells, individuals or studies. Marks in square brackets tell the records apart. Letters hold for one entry only.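 TGI is the concentration that stops growth completely.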

How the values were obtained:
Test in all cases: NCI-60 cell line screen, 48 h
SK-MEL-28 melanoma = test system: SK-MEL-28 melanoma
HOP-92 NSCLC = test system: HOP-92 NSCLC
OVCAR-3 ovarian = test system: OVCAR-3 ovarian
SNB-75 CNS = test system: SNB-75 CNS
COLO 205 colon = test system: COLO 205 colon
EKVX NSCLC = test system: EKVX NSCLC
CCRF-CEM leukemia = test system: CCRF-CEM leukemia
HS 578T breast = test system: HS 578T breast
786-0 renal = test system: 786-0 renal
K-562 leukemia = test system: K-562 leukemia
HOP-62 NSCLC = test system: HOP-62 NSCLC
SR leukemia = test system: SR leukemia

## COC(=O)/C=C/c1cc(O)c2c(c1)C(C(=O)OC)C(c1ccc(O)c(O)c1)O2 (stereo not given)
SK-MEL-28 melanoma
  GI50: 174 nM [sample A, mean of 2 tests] and 2.63 µM [sample B, 1 test]
HOP-92 NSCLC
  GI50: 5.51 µM [sample A, mean of 2 tests] and 266 nM [sample B, 1 test]
OVCAR-3 ovarian
  TGI: 19.3 µM [sample A] and 120 nM [sample B]
SNB-75 CNS
  GI50: 389 nM [sample A, mean of 2 tests] and 35.4 nM [sample B, 1 test]

## CCC/C(=N\NC(=S)N1CCN(c2ccccn2)CC1)c1ccccn1
HOP-92 NSCLC
  TGI: > 10 µM and 743 nM
COLO 205 colon
  TGI: 43.5 nM and 1.35 µM
SNB-75 CNS
  GI50: 396 nM and 23.8 nM
EKVX NSCLC
  TGI: 216 nM and 2.43 µM

## CC(C)C[C@@H](NC(=O)[C@@H](Cc1ccccc1)NC(=O)c1cnccn1)B1O[C@H]2[C@H](O)[C@@H](C(=O)NCCCC[C@@H]3NC(=O)[C@@H](Cc4ccccc4)NC(=O)[C@H](CC(=O)O)NC(=O)CNC(=O)[C@H](CCCN=C(N)N)NC3=O)O[C@@H](CN)[C@H]2O1
CCRF-CEM leukemia
  TGI: 146 nM and > 50 µM
HS 578T breast
  TGI: 105 nM and > 50 µM
786-0 renal
  TGI: 57.4 nM and 2.06 µM
K-562 leukemia
  TGI: 118 nM and > 50 µM
HOP-62 NSCLC
  TGI: 46.6 nM and 524 nM

## COc1ccc(C(=O)/C=C/c2ccc(O)c(O)c2F)c(OC)c1
SR leukemia
  TGI: 75 µM and 3.4 µM
OVCAR-3 ovarian
  TGI: 3.77 µM and 43.2 µM
